Test results as given in the supplement of paper PMC12217912.
The list shows a part of the results. The full chains were built here from the parent and the listed change. Inactive controls read about 0.05.

B1: TEV protease; numbered along this chain (parent)
chain: MGESLFKGPRDYNPISSSICHLTNESDGHTTSLYGIGFGPFIITNKHLFRRNNGTLVVQSLHGVFKVKDTTTLQQHLVDGRDMIIIRMPKDFPPFPQKLKFREPQREERICLVTTNFQTKSMSSMVSDTSCTFPSGDGIFWKHWIQTKDGQCGSPLVSTRDGFIVGIHSASNFTNTNNYFTSVPKNFMELLTNQEAQQWVSGWRLNADSVLWGGHKVFMVKPEEPFQPVKEATQL

Variants of: B1
Assay: raw area under fraction-flipped curve 0-4 h after induction (AUC4h, not background-subtracted), DNA-recorder readout of cleavage of the substrate (dimensionless); higher = more cleavage of the substrate by the protease variant
Conditions: temperature: 34 °C; time window: 0-4 h after rhamnose induction
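Further: Bxb1 expression induced with 0.2% (w/v) L-rhamnose at OD600 near 0.5, cultures sampled hourly, flipped fraction per protease–substrate barcode pair counted by paired-end Illumina sequencing.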

| Variant | area with substrate EALYFQS | area with substrate ECLYFQS | area with substrate EDLYFQS | area with substrate EELYFQS | area with substrate EGLYFQS | area with substrate EILYFQS | area with substrate EKLYFQS | area with substrate ERLYFQS | area with substrate ESLYFQS | area with substrate ETLYFQS | area with substrate EVLYFQS | area with substrate EWLYFQS | area with substrate EHLYFQS | area with substrate EMLYFQS | area with substrate EQLYFQS | area with substrate ELLYFQS | area with substrate EPLYFQS | area with substrate EFLYFQS | area with substrate EYLYFQS |
| --- | --- | --- | --- | --- | --- | --- | --- | --- | --- | --- | --- | --- | --- | --- | --- | --- | --- | --- | --- |
| MGESLFKGPRDYNPISSSICHLTNESDGHTTSLYGIGFGPFIITNKHLFRRNNGTLVVQSLHGVFKVKDTTTLQQHLVDGRDMIIIRMPKDFPPFPQKLKFREPQREERICLVTTNFQTKSMSSMVSDTSCTFPSGDGIFWKHWIQTKDGQCGSPLVSTRDGFIVGIHSASNFTNTNNYFTSVPKNFMELLTNQEAQQWVSGWRLNADSVLWGGHKVFMVKPEEPFQPFKEATQL [V229F] | 0.107 | 0.0944 | 0.103 | 0.121 | 0.102 | 0.109 | 0.107 | 0.0787 | 0.0995 | 0.0979 | 0.098 | 0.0898 | – | – | – | – | – | – | – |
| MGESLFKGPRDYNPISSSICHLTNESDGHTTSLYGIGFGPFIITNKHLFRRNNGTLVVQSLHGVFKVKDTTTLQQHLVDGRDMIIIRMPKDFPPFPQKLKFREPQREERICLVTTNFQTKSMSSMVSDTSCTFPSGDGIFWKHWIQTKDGQCGSPLVSTRDGFIVGIHSASNFTNTNNYFTSVPKNFMELLTNQEAQQWVSGWRLNADSVLWGGHKVFMVKPEEPFQPVCEATQL [K230C] | 0.0951 | 0.0819 | 0.111 | 0.122 | – | 0.0937 | 0.104 | 0.104 | 0.116 | 0.112 | – | – | 0.1 | 0.128 | 0.114 | – | – | – | – |
| MGESLFKGPRDYNPISSSICHLTNESDGHTTSLYGIGFGPFIITNKHLFRRNNGTLVVQSLHGVFKVKDTTTLQQHLVDGRDMIIIRMPKDFPPFPQKLKFREPQREERICLVTTNFQTKSMSSMVSDTSCTFPSGDGIFWKHWIQTKDGQCGSPLVSTRDGFIVGIHSASNFTNTNNYFTSVPKNFMELLTNQEAQQWVSGWRLNADSVLWGGHKVFMVKPEEPFQPVDEATQL [K230D] | 0.109 | 0.147 | 0.14 | 0.144 | – | 0.177 | 0.13 | 0.0893 | 0.114 | – | 0.125 | 0.0586 | 0.108 | 0.0564 | 0.116 | 0.0869 | 0.111 | – | – |
| MGESLFKGPRDYNPISSSICHLTNESDGHTTSLYGIGFGPFIITNKHLFRRNNGTLVVQSLHGVFKVKDTTTLQQHLVDGRDMIIIRMPKDFPPFPQKLKFREPQREERICLVTTNFQTKSMSSMVSDTSCTFPSGDGIFWKHWIQTKDGQCGSPLVSTRDGFIVGIHSASNFTNTNNYFTSVPKNFMELLTNQEAQQWVSGWRLNADSVLWGGHKVFMVKPEEPFQPVNEATQL [K230N] | 0.0891 | 0.105 | 0.146 | 0.121 | 0.0872 | 0.0858 | 0.102 | 0.102 | 0.111 | 0.0989 | 0.0909 | 0.089 | 0.0752 | – | 0.141 | – | – | 0.0888 | 0.127 |
| MGESLFKGPRDYNPISSSICHLTNESDGHTTSLYGIGFGPFIITNKHLFRRNNGTLVVQSLHGVFKVKDTTTLQQHLVDGRDMIIIRMPKDFPPFPQKLKFREPQREERICLVTTNFQTKSMSSMVSDTSCTFPSGDGIFWKHWIQTKDGQCGSPLVSTRDGFIVGIHSASNFTNTNNYFTSVPKNFMELLTNQEAQQWVSGWRLNADSVLWGGHKVFMVKPEEPFQPVKCATQL [E231C] | 0.0906 | 0.113 | 0.149 | 0.102 | – | 0.083 | 0.108 | 0.104 | 0.0867 | 0.111 | 0.089 | – | – | 0.117 | 0.16 | – | 0.103 | – | – |
| MGESLFKGPRDYNPISSSICHLTNESDGHTTSLYGIGFGPFIITNKHLFRRNNGTLVVQSLHGVFKVKDTTTLQQHLVDGRDMIIIRMPKDFPPFPQKLKFREPQREERICLVTTNFQTKSMSSMVSDTSCTFPSGDGIFWKHWIQTKDGQCGSPLVSTRDGFIVGIHSASNFTNTNNYFTSVPKNFMELLTNQEAQQWVSGWRLNADSVLWGGHKVFMVKPEEPFQPVKEATNL [Q234N] | 0.129 | 0.0967 | 0.156 | 0.148 | 0.118 | 0.0543 | 0.118 | 0.0957 | 0.103 | – | 0.103 | 0.0939 | – | 0.128 | 0.112 | 0.0997 | 0.11 | 0.103 | 0.0896 |
| MGESLFKGPRDYNPISSSICHLTNESDGHTTSLYGIGFGPFIITNKHLFRRNNGTLVVQSLHGVFKVKDTTTLQQHLVDGRDMIIIRMPKDFPPFPQKLKFREPQREERICLVTTNFQTKSMSSMVSDTSCTFPSGDGIFWKHWIQTKDGQCGSPLVSTRDGFIVGIHSASNFTNTNNYFTSVPKNFMELLTNQEAQQWVSGWRLNADSVLWGGHKVFMVKPEEPFQPVKEATWL [Q234W] | 0.116 | 0.118 | 0.0862 | 0.113 | – | 0.0911 | – | 0.109 | 0.0995 | – | 0.0996 | – | 0.105 | – | 0.0856 | 0.0897 | 0.0583 | – | – |
